The whole screen tested about 360,000 compounds, of which about 17,000 (4.7%) were called active. Inconclusive means that the source gave no clear call. Such entries were picked first, then a sample of the others. Rule as the data show it: active = activity change below about -50%; inconclusive = mostly about -30% to -49%; inactive = weaker than that.
assay: qHTS for Inhibitors of Inflammasome Signaling: IL-1-beta AlphaLISA Primary Screen; conditions: THP-1 LPS/ATP IL-1B secretion, 16 h; at 57.5 µM, stronger effect = lower value
In short: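 Secreted IL-1B measured by AlphaLISA bead assay after 16 h compound exposure of THP-1 cells; compounds (final up to 57.5 uM) added 1 h before LPS (250 ng/mL) and ATP (1.25 mM) stimulation; lower signal means less secretion.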
% is scaled to controls: 0 for no effect and ±100 for the full control effect.

Activity change, inactive:
C/C(Nc1ccc(Cl)cc1)=C1/CCOC1=O 1.39%
O=C(Nc1ccccc1)C1=C[C@H](c2csc3ccccc23)C[C@H](OCCCCO)O1 -29%
CC(C)(CC(=O)c1ccccc1)CC(=O)c1ccccc1 -0.488%
O=C(Cn1nnc(-c2ccc(Cl)cc2)n1)NC1CCS(=O)(=O)C1 (stereo not given) 21.3%
CCOC(=O)c1cc(C)sc1NC(=O)CSc1nccn1C -14%
CC(Oc1ccccc1)C(=O)Nc1cc(Cl)ccc1-n1cncn1 (stereo not given) 5.65%
Cc1ccc2c(C)c(C(=O)N3CCCCC3CO)oc2c1C (stereo not given) -0.598%
Cc1[nH]nc2c1C(c1ccc(F)cc1)C(C#N)=C(N)O2 (stereo not given) -28.4%

Activity change, active:
CN1CCC(N(C)S(=O)(=O)c2ccc(NC(=O)COc3ccc(Br)cc3Cl)cc2)CC1 -62.7%
O=C1CC(c2ccccc2)=NN1c1ccc([N+](=O)[O-])cc1 -62.7%
Cc1sc2ncnc(Sc3nnnn3-c3ccc(Cl)cc3)c2c1C -69.5%
Cc1c(Cl)cccc1NC(=S)NCCc1ccc(C(F)(F)F)cc1 -102%
O=C(NCCCN1CCOCC1)c1cc(-c2ccc(Br)cc2)nc2ccccc12 -68.3%

Activity change, inconclusive:
COc1ccc(-c2csc(NC(=O)CC(C)C)n2)cc1 -38.8%
C=CCN1C(=O)/C(=C\C(C)=C\c2ccccc2)SC1=S -48.1%
CCCCN(CC)CCCNC(=O)c1cn(CC(C)C)c(=O)c2c1c1ccccc1n2C -32.4%
Cc1ccc(NC(=O)CCc2c(C)nn(-c3ccc(N4CCCCC4)nn3)c2C)cc1F -47.2%
CCN(CC)c1ccc(-c2nc3cnccn3c2NC2CCCC2)cc1 -45.2%
CON(C)c1nc(Oc2ccc(=O)[nH]n2)nc(N(C)C)n1 -30.7%
COc1cccc(NC(=O)C(=O)c2cn(CC(=O)N3CCCC3)c3ccccc23)c1 -38.1%
CN1CCC(=C2c3ccccc3C=Cc3ccccc32)CC1 -39.1%
COc1ccc([C@H]2CC(=O)C=C(c3cccc(C(C)C)c3)C2)cc1 -34.8%
CC1CCN(S(=O)(=O)c2csc(C(=O)Nc3ccccc3)c2)CC1 -46.7%
O=C(NCCCN1CCCC1)c1ccc2c(c1)N(Cc1ccccc1)CCS2 -40.5%
Cc1onc(-c2c(Cl)cccc2Cl)c1C(=O)Nc1nc(C(C)(C)C)cs1 -43.3%
